Experimental data from patent publication US20100204114A1, “USE OF A GALANIN PEPTIDE AS A THERAPEUTIC AGENT” (priority 2007, published 2010).
Where no end group is shown, it is not given here.

System: RAW 264.7 (Mouse leukaemic monocyte macrophage cell line) cells
Test: Phagocytosis assay (Fluorescein-labeled Escherichia coli, flow cytometry)
Conditions: 10 micrograms per ml, 30 min preincubation, 60 min ingestion

| Substance | increase on the phagocytic activity of murine macrophages [%] |
| --- | --- |
| Gly-Trp-Thr-Leu-Asn-Ser-Ala-Gly-Tyr-Leu-Leu-Gly-Pro-His-Ala-Val-Gly-Asn-His-Arg-Ser-Phe-Ser-Asp-Lys-Asn-Gly-Leu-Thr-Ser-OH [peptide 1] | 22.9 |
| Ile-Tyr-Leu-Gly-Gly-Pro-Phe-Ser-Pro-Asn-Val-Leu-OH (IYLGGPFSPNVL-OH) [peptide 2] | 51.4 |
